Source: patent EP1310557A1, “Design of bioactive peptides based on immunoglobulin structure” (priority 1990, dated 2003)

Key:
[1] = system: recombinant glycosylated gp120; assay: Immunization of rabbits: radiolabelled immunoprecipitation of gp120 by antisera; assay type: in vivo, HIV; details: radiolabelled immunoprecipitations
HIV = assay: Infectivity assays with rabbit anti-peptide sera; assay type: in vivo

## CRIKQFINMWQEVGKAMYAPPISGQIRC [1005-45, cyclic peptide made from B138 by cysteine bond formation; cyclic 418-445 fragment]
[1]
  immunoprecipitation of recombinant glycosylated gp120 by rabbit antisera: significant specificity
HIV
  neutralizing antibodies elicited: could elicit neutralizing antibodies
